Source: PMC4336329 (PLoS ONE, 2015)
About 2,200 (0.71%) of roughly 310,000 compounds showed an effect of 50% or more. Effects have a minus sign here. This is one part of the list.

Each molecule was assayed against human ether-à-go-go-related gene (hERG) potassium channel (human, UniProt Q12809) (assay: primary screen, population patch clamp on CHO cells stably expressing hERG).
human ether-à-go-go-related gene (hERG) potassium channel, sequence (Q12809 whole entry, looked up): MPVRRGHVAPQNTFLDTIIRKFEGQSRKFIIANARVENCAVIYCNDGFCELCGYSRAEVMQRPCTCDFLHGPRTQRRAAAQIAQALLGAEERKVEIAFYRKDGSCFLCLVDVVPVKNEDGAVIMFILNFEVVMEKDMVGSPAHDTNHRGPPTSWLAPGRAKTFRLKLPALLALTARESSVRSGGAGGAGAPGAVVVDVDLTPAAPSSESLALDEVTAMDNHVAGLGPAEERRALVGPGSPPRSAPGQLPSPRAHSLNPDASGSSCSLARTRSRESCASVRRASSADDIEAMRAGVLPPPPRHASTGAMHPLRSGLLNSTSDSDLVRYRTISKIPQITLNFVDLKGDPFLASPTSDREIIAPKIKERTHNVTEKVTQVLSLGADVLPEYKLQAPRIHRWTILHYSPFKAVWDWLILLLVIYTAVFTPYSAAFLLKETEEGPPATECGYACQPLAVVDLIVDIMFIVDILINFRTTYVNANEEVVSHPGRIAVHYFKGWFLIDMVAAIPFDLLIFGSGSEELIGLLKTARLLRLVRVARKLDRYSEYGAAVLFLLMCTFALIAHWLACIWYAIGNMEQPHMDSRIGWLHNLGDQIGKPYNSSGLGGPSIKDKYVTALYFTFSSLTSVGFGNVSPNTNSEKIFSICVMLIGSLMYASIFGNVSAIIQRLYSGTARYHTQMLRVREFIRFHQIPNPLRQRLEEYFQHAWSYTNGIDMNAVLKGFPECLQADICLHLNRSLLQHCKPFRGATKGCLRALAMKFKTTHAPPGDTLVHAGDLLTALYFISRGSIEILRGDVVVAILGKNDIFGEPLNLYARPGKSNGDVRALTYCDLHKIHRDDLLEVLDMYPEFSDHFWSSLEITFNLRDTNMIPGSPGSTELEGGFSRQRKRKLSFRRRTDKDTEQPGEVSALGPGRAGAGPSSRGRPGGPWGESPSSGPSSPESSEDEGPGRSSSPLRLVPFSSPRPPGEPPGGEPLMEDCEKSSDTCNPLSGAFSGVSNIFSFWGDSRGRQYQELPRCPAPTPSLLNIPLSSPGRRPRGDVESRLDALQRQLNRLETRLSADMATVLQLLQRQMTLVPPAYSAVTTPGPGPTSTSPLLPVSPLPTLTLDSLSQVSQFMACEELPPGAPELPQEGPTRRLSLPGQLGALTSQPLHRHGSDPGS

Question: `COc1ccc(/C=N/Nc2nc(Nc3ccccc3)nc(N3CCCC3)n2)cc1` was tested. Which “hERG current change (%, negative = inhibition) at 1uM” value did it give?
Answer: 9.1%

Question: Which “hERG current change (%, negative = inhibition) at 1uM” value does the source give for `COc1ccc(OC)c(-c2cc(C(=O)N3CCN(c4ccccc4)CC3)no2)c1` here?
Answer: -3.18%

Question: With `COCCOC(=O)C1=C(C)NC(=S)NC1/C=C/c1ccccc1` (centres unmarked) as the molecule, how does the “hERG current change (%, negative = inhibition) at 1uM” value read?
Answer: 8.19%

Question: Which “hERG current change (%, negative = inhibition) at 1uM” value does the source give for `C=CCSc1nnc(-c2c[nH]c3ccccc23)n1CCOC` here?
Answer: 10.5%

Question: Which “hERG current change (%, negative = inhibition) at 1uM” value does the source give for `CCC(C)C(NC(=O)c1ccccc1NC(=O)c1ccc(C)cc1)C(=O)O` (centres unmarked) here?
Answer: 14.2%

Question: How did the “hERG current change (%, negative = inhibition) at 1uM” value turn out when `Cc1cc(NC(=O)CSCc2nc(-c3cccc(Cl)c3)oc2C)no1` was run?
Answer: 11.7%

Question: `O=C(COc1ccc(S(=O)(=O)NC2CCCCC2)cc1Cl)NCC1CCCO1` (centres unmarked) was tested. Which “hERG current change (%, negative = inhibition) at 1uM” value did it give?
Answer: 7.84%

Question: Which “hERG current change (%, negative = inhibition) at 1uM” value does the source give for `CC(=O)CSc1nnc(-c2ccc(S(=O)(=O)N3CCOCC3)cc2)n1C` here?
Answer: 17.3%

Question: With `O=[N+]([O-])c1c(NCCCO)cc(Sc2nc3ccccc3s2)c2nonc12` as the molecule, how does the “hERG current change (%, negative = inhibition) at 1uM” value read?
Answer: 2.55%

Question: With `O=C(COc1ccc(Cl)cc1)NCc1nnc(SCC(=O)Nc2ccc3c(c2)OCCO3)o1` as the molecule, how does the “hERG current change (%, negative = inhibition) at 1uM” value read?
Answer: 12.6%

Question: How did the “hERG current change (%, negative = inhibition) at 1uM” value turn out when `Cc1cc(=O)oc(C)c1C(=O)NCCc1ccc(F)cc1` was run?
Answer: 4.08%

Question: For `N#CCSc1nnc(CNc2cccc(Cl)c2)o1`, which “hERG current change (%, negative = inhibition) at 1uM” value is on record?
Answer: 8.19%

Question: For `O=C(OCC(=O)N1CCN(S(=O)(=O)c2ccccc2)CC1)c1ccc([N+](=O)[O-])o1`, which “hERG current change (%, negative = inhibition) at 1uM” value is on record?
Answer: 7.48%

Question: How did the “hERG current change (%, negative = inhibition) at 1uM” value turn out when `Cc1cccc(-c2nsc(SCC(=O)NCc3ccc4c(c3)OCO4)n2)c1` was run?
Answer: 8.32%

Question: With `CCOc1ccc(OCCCCn2cnc3ccccc3c2=O)cc1` as the molecule, how does the “hERG current change (%, negative = inhibition) at 1uM” value read?
Answer: 3.27%

Question: For `C=CCNCCOCCSc1ccc(Cl)cc1.O=C(O)C(=O)O`, which “hERG current change (%, negative = inhibition) at 1uM” value is on record?
Answer: -0.123%

Question: How did the “hERG current change (%, negative = inhibition) at 1uM” value turn out when `CCCCOC(=O)c1ccc(NC(=O)C(=O)NCc2ccncc2)cc1` was run?
Answer: 7.46%

Question: How did the “hERG current change (%, negative = inhibition) at 1uM” value turn out when `C=CCN1C(=O)c2ccc(C(=O)NCC(c3ccccc3)N(C)C)cc2C1=O` (centres unmarked) was run?
Answer: 7.08%

Question: For `CCn1ncc(Cl)c1C(=O)Nc1cc([N+](=O)[O-])ccc1OC`, which “hERG current change (%, negative = inhibition) at 1uM” value is on record?
Answer: 11.5%

Question: For `CC(=O)c1ccc(NC(=O)C(C)OC(=O)c2cccc(-n3cnnn3)c2)cc1` (centres unmarked), which “hERG current change (%, negative = inhibition) at 1uM” value is on record?
Answer: 5.99%

Question: Which “hERG current change (%, negative = inhibition) at 1uM” value does the source give for `Cc1nn(Cc2ccccc2Cl)c(C)c1C(=O)OCC(=O)NC1CCCC(C)C1C` (centres unmarked) here?
Answer: 6.97%

Question: Which “hERG current change (%, negative = inhibition) at 1uM” value does the source give for `Cc1cccc(N2CCN(C(=O)/C=C/c3cccs3)CC2)c1C` here?
Answer: 9.29%

Question: How did the “hERG current change (%, negative = inhibition) at 1uM” value turn out when `COc1ccc(N2CCN(C(CNC(=O)OCc3ccccc3)c3ccco3)CC2)cc1` (centres unmarked) was run?
Answer: -2.14%

Question: With `Cc1ccc(S(=O)(=O)NC2c3cccc4cccc(c34)C2Sc2ncccn2)cc1` (centres unmarked) as the molecule, how does the “hERG current change (%, negative = inhibition) at 1uM” value read?
Answer: 11.8%

Question: Which “hERG current change (%, negative = inhibition) at 1uM” value does the source give for `O=C(O)c1ccc2c(c1)C(=O)N(c1cccc3ccccc13)C2=O` here?
Answer: 10.8%

Question: For `O=C(CSc1nnc(CNC(=O)c2c(F)cccc2Cl)o1)NCc1ccccc1`, which “hERG current change (%, negative = inhibition) at 1uM” value is on record?
Answer: 13.6%

Question: With `COc1cc(NC(=O)N[C@H](C(=O)O)C(C)C)cc(OC)c1` as the molecule, how does the “hERG current change (%, negative = inhibition) at 1uM” value read?
Answer: 1.71%

Question: How did the “hERG current change (%, negative = inhibition) at 1uM” value turn out when `Nc1ccc(S(=O)(=O)Nc2ccc(C(=O)c3ccccc3)cc2)cc1` was run?
Answer: 14.6%

Question: For `COc1ccc(C(=O)NC(=S)NNC(=O)Cc2cccs2)cc1`, which “hERG current change (%, negative = inhibition) at 1uM” value is on record?
Answer: 6.79%

Question: For `CCc1ccc(CNC(=O)CCCC(=O)n2nc(C)c3ccccc32)cc1`, which “hERG current change (%, negative = inhibition) at 1uM” value is on record?
Answer: 16.1%

Question: With `COc1ccc(N(C(=O)CNC(=O)c2ccco2)C(C(=O)NCC2CCCO2)c2ccc(OC)c(OC)c2)cc1` (centres unmarked) as the molecule, how does the “hERG current change (%, negative = inhibition) at 1uM” value read?
Answer: 14.1%

Question: How did the “hERG current change (%, negative = inhibition) at 1uM” value turn out when `Cc1noc(C)c1S(=O)(=O)NC1CCN(Cc2ccccc2)CC1` was run?
Answer: 9%

Question: For `C[C@@H](C(=O)NCCc1c[nH]c2ccccc12)[C@H]1C[C@]1(C)[C@H](NC(=O)OCc1ccccc1)c1ccccc1`, which “hERG current change (%, negative = inhibition) at 1uM” value is on record?
Answer: 8.13%

Question: With `CN(C)S(=O)(=O)c1ccc(Cl)c(NC(=O)CSc2nc3c(cc2C#N)C(=O)CC(C)(C)C3)c1` as the molecule, how does the “hERG current change (%, negative = inhibition) at 1uM” value read?
Answer: -45.7%

Question: Which “hERG current change (%, negative = inhibition) at 1uM” value does the source give for `COc1ccccc1/C=C/C=N/n1c(-c2ccco2)n[nH]c1=S` here?
Answer: 12.6%

Question: `CCOc1ccc(CN2CCNC(=O)C2CC(=O)NC2CCCCCC2)cc1` (centres unmarked) was tested. Which “hERG current change (%, negative = inhibition) at 1uM” value did it give?
Answer: 10.4%

Question: For `COc1ccc(CCn2c(-c3cc([N+](=O)[O-])cc([N+](=O)[O-])c3)nc3nc4ccccc4nc32)cc1`, which “hERG current change (%, negative = inhibition) at 1uM” value is on record?
Answer: 4.54%

Question: `C[C@@H]1CC[C@@]2(O[C@H](CCO)C[C@@H](O)[C@@H]2O)O1` was tested. Which “hERG current change (%, negative = inhibition) at 1uM” value did it give?
Answer: 18.6%

Question: For `CCOC(=O)CCC(=O)c1c(C)oc2ccc(OC)cc12`, which “hERG current change (%, negative = inhibition) at 1uM” value is on record?
Answer: -18.4%

Question: How did the “hERG current change (%, negative = inhibition) at 1uM” value turn out when `Cc1c(N2C(=O)c3ccc4c5c(ccc(c35)C2=O)CC4)c(=O)n(-c2ccccc2)n1C` was run?
Answer: 19.1%

Question: How did the “hERG current change (%, negative = inhibition) at 1uM” value turn out when `Nc1ccccc1-c1nc2ccccc2[nH]1` was run?
Answer: 1.2%

Question: How did the “hERG current change (%, negative = inhibition) at 1uM” value turn out when `CC[C@@]12C(=O)N(c3ccccc3)C(=O)N1[C@H](c1cccc(C)c1)[C@@H]1C(=O)N(Cc3ccccc3)C(=O)[C@@H]12` was run?
Answer: 20.5%

Question: How did the “hERG current change (%, negative = inhibition) at 1uM” value turn out when `Cc1ccc2nnn(Cc3cccc(C(C)(C)C)c3O)c2c1` was run?
Answer: 11.1%

Question: For `Cn1nccc1C(=O)N1CCCC(C(=O)c2ccc(Oc3ccccc3)cc2)C1` (centres unmarked), which “hERG current change (%, negative = inhibition) at 1uM” value is on record?
Answer: 7.34%

Question: `Cc1noc(C)c1CSc1nc2cc(S(=O)(=O)N3CCOCC3)ccc2o1` was tested. Which “hERG current change (%, negative = inhibition) at 1uM” value did it give?
Answer: 1.65%

Question: How did the “hERG current change (%, negative = inhibition) at 1uM” value turn out when `COc1ccccc1NC(=O)C1CCOC1=O` (centres unmarked) was run?
Answer: 13.1%

Question: For `CCN1CCN(c2ccc(S(=O)(=O)N3CCOCC3)cc2NC(=O)C(C)Oc2ccc(Cl)cc2)CC1` (centres unmarked), which “hERG current change (%, negative = inhibition) at 1uM” value is on record?
Answer: -31.9%

Question: Which “hERG current change (%, negative = inhibition) at 1uM” value does the source give for `COc1ccccc1CCC(=O)N1CCN(C(=O)c2ccccc2)CC1` here?
Answer: 9.3%

Question: `O=C(CCCC(=O)N(c1ccc2c(c1)OCCO2)C(C(=O)NC1CCCCC1)c1ccc(F)cc1)Nc1ccccn1` (centres unmarked) was tested. Which “hERG current change (%, negative = inhibition) at 1uM” value did it give?
Answer: 13.8%

Question: With `CC(C)(C)C(=O)Nc1ccc(NC(=O)C(C)(C)C)cc1` as the molecule, how does the “hERG current change (%, negative = inhibition) at 1uM” value read?
Answer: 4.17%

Question: With `C=CCc1cccc2cc(C(=O)O)c(=O)oc12` as the molecule, how does the “hERG current change (%, negative = inhibition) at 1uM” value read?
Answer: -3.89%

Question: How did the “hERG current change (%, negative = inhibition) at 1uM” value turn out when `CC1CCCC(C)N1CCCNC(=O)Cn1ncc2c3ccccc3n(C)c2c1=O` (centres unmarked) was run?
Answer: 10%

Question: With `O=C(N/N=C1/SCC(=O)N1Cc1ccco1)c1ccccc1F` as the molecule, how does the “hERG current change (%, negative = inhibition) at 1uM” value read?
Answer: 13.6%
